Experimental data from PubChem BioAssay AID1347073 (National Center for Advancing Translational Sciences (NCATS), 2019).
Hit rate of the full screen: of about 45,000 compounds, about 200 (0.44%) were called active. Another 7% or so got no clear call; they are omitted. The call rests on the fitted dose curve; in most records, active means well fitted activation curve with a large enough effect; inconclusive means small, poorly fitted or top-dose-only effect; inactive means no such curve, though single readings can be large or run the other way. The list shows a part of the results.

experiment: qHTS of TDP-43 Inhibitors: NCGC Sytravon Library Screen; settings: yeast TDP-43 toxicity rescue, BacTiter-Glo growth, 24 h; series mostly up to 46.1 µM; growth rescue (activation): at the top concentration; further: 0% is about no effect; nearly all actives have a fitted effect of over 55% in size
Summary of the method: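 TDP-43-expressing yeast, pregrown in raffinose, seeded at OD600 0.02 in galactose medium with compound for 24 hr at 30 deg C. Growth read by BacTiter-Glo luminescence, so rescue of toxicity appears as activation.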

| SMILES | growth rescue (activation) |
| --- | --- |
| CCOc1ccc(OCC(=O)Nc2ccc(S(N)(=O)=O)cc2)cc1 | inactive: 9.46% |
| CCOc1ccccc1OCC(=O)NN=C1CCCC(=O)C1 | inactive: -7.47% |
| CC(C)N(CC#CC(O)(c1ccccc1)c1ccccc1)CCO | inactive: 18.8% |
| Cc1ccc(C(=O)Nc2cc3ccccc3oc2=O)cc1 | inactive: 0.265% |
| Cc1cccc(/C(N)=N/OC(=O)c2ccc(F)cc2)c1 | inactive: -61.1% |
| CN1CCC(C)(C(=O)Nc2cccc3c2CCCC3)C1 (stereo not given) | inactive: -13.2% |
| CCCOc1ccc(/C(O)=C2\C(=O)C(=O)N(c3ccccn3)C2c2ccccc2F)cc1C (stereo not given) | inactive: -6.02% |
| COc1ccc2oc(=O)c(/C(N)=N/NC(=O)c3ccncc3)cc2c1 | inactive: 7.88% |
| O=C(Nc1ccccc1C(=O)NCc1cccnc1)c1ccc(Cl)cc1Cl | inactive: -3.63% |
| CCCSc1ncc(Cl)c(C(=O)Nc2sc(C(C)=O)c(C)c2C(=O)OCC)n1 | inactive: 24.3% |
| C=CCc1cccc(CNc2ccc(S(=O)(=O)Nc3nccnc3OC)cc2)c1O | inactive: -4.71% |
| O=C(OCCN=C1NS(=O)(=O)c2ccccc21)c1cccnc1 | inactive: 26% |
| CN(C)S(=O)(=O)N(CC(=O)NCCSCc1ccc(Cl)cc1)c1ccccc1 | inactive: 6.17% |
| CN(c1ccccc1C(=O)Nc1ccc(S(=O)(=O)N2CCOCC2)cc1)S(=O)(=O)c1ccccc1 | inactive: 1.17% |
| Nc1nc2ccc(S(=O)(=O)c3ccc4nc(N)sc4c3)cc2s1 | inactive: 4.07% |
| COc1ccc(/C=C(/CC(=O)Nc2ccccc2)c2nc3ccccc3s2)cc1 | inactive: -19.5% |
| CCN(CC)C(=O)c1sc(NC(=O)c2cccnc2)c(C(=O)OC)c1C | inactive: 6.81% |
| CCCCN(CC)CCNC(=O)c1cc2cc3ccc(Cl)cc3nc2o1 | inactive: -6.51% |
| Cc1nnc(Sc2cc(C(=O)NC3CC3)c3ccccc3n2)s1 | inactive: -1.84% |
| CNc1c(NS(=O)(=O)c2ccc(F)c(Cl)c2)c(=O)oc2ccccc12 | inactive: -4.79% |
| COc1ccc([N+](=O)[O-])cc1N(CC(=O)Nc1ccccc1C(=O)NC(C)C)S(C)(=O)=O | inactive: 8.95% |
| CC(=O)NCCc1ccc(S(=O)(=O)Nc2ccc(NC(=O)c3ccc(F)cc3)cc2)cc1 | inactive: 7.15% |
| Cc1ccc(NC(=O)CN2C(=O)C(c3ccc(C)cc3)=NC23CCCCCC3)cc1 | inactive: -3.22% |
| O=S(=O)(Nc1cccc(S(=O)(=O)N2CCCCCC2)c1)c1ccccc1 | inactive: 2.39% |
| CC(C(=O)NC1CCCc2ccccc21)N1CCN(c2ccc(F)cc2)CC1 (stereo not given) | inactive: -19.9% |
| Cc1ccc(/C=C/C(=O)NC(=S)N2CCN(c3ccc(F)cc3)CC2)cc1 | inactive: -10.3% |
| CN(C)C(=O)CSc1nnc(NC(=O)CCc2ccccc2)s1 | inactive: 11.8% |

| SMILES | growth rescue (activation) |
| --- | --- |
| CCOC(=O)c1sc(NC(=S)NC(=O)c2ccccc2Cl)c(C(=O)OCC)c1C | inactive: 27.8% |
| C(=N\N=C\c1ccccn1)/c1ccccn1 | inactive: -4.7% |
| Cc1ccc(/C=N/NC(=O)CSc2nnc(-c3ccc(Cl)cc3)n2-c2ccc(Cl)cc2)o1 | inactive: -2.27% |
| Cc1cccc(/C(N)=N/OC(=O)COc2ccccc2Cl)c1 | inactive: 21.1% |
| CCOC(=O)c1ccc(N=c2scc(C)n2CC)cc1 | inactive: 20.1% |
| CC(C)n1cc([C@@H]2C[C@H]3CN(Cc4cccc(Cl)c4)C(=O)[C@]34CCCN24)cn1 | inactive: -12.7% |
| COc1cc(/C=C/C(=O)NCc2ccccn2)cc(OC)c1OC | inactive: 27.1% |
| CCOc1ccc(CN(C)CCc2ccccn2)cc1 | inactive: -5.63% |
| O=C(COC(=O)CCC1CCCC1)Nc1nc2c(F)c(F)c(F)cc2s1 | inactive: 13.9% |
| Cc1ccc(NC(=O)CC(=O)Nc2ccc(C)c(C)c2)cc1C | inactive: 5.64% |
| COc1cccc(CC2(CO)CCCN(Cc3cn[nH]c3-c3ccccc3)C2)c1 (stereo not given) | inactive: -0.758% |
| CCNC(=S)N/N=C(\C)c1ccc2c(c1)OCCO2 | inactive: 23% |
| Cc1nc(CCNC(=O)CC2C(=O)NCCN2Cc2ccc(F)cc2)sc1C (stereo not given) | inactive: -1.21% |
| O=[N+]([O-])c1ccc(OCc2nnc(-c3ccccc3)o2)cc1 | inactive: -2.46% |
| COc1ccc(OCc2nnc(SCC(=O)Nc3ccccc3C#N)o2)cc1 | inactive: -2.09% |
| CC(c1ccccc1)n1c(S(=O)(=O)O)nc2ccccc21 (stereo not given) | inactive: -1.34% |
| Cc1[nH]n(-c2ccccc2)c(=O)c1C(c1cc(Cl)ccc1O)c1c(C)[nH]n(-c2ccccc2)c1=O | inactive: 0.238% |
| CSc1ccccc1C(=O)Nc1cc([N+](=O)[O-])ccc1C | inactive: 27.9% |
| COc1ccc(NC(=S)N2CCC(NC(=O)c3ccc(F)cc3)CC2)cc1 | inactive: -5.51% |
| Cc1c(CNC2CCCC2)c(C(=O)O)c(C)n1Cc1ccccc1 | inactive: 15.8% |
| C=CCN(C(=O)c1csnn1)C(C(=O)NCc1ccc(F)cc1)c1cccs1 (stereo not given) | inactive: 12% |
| COc1ccc(-c2oc(=O)n(C)c2-c2ccc(OC)cc2)cc1 | inactive: 26.4% |
| CCN(CC)c1ccc(NC(=O)OC)cc1 | inactive: 13.2% |
| COc1ccc(C2=NOC(CNC(=S)N3CCOCC3)C2)cc1 (stereo not given) | inactive: 9.74% |
| CCN(CC)C(=O)CSc1ccc(C(F)(F)F)cc1[N+](=O)[O-] | inactive: 17.9% |
| Cc1ccccc1NC(=O)CSc1nc2ccccc2c(=O)n1CC1CCCO1 (stereo not given) | inactive: -3.76% |
| C/C(CC(=O)Nc1ccc2c(c1)OCCO2)=N\NC(=O)COc1ccccc1C | inactive: 2.45% |

| SMILES | growth rescue (activation) |
| --- | --- |
| O=[N+]([O-])c1ccc(O)c(C=Nc2ccc3nc(-c4ccccc4)[nH]c3c2)c1 | inactive: -10.9% |
| COc1cccc(-n2c(-c3ccccc3)c[nH]c2=S)c1 | inactive: 9.64% |
| CN(NS(=O)(=O)c1ccc(Br)cc1)c1nc(C(F)(F)F)nc2ccccc12 | inactive: 8.07% |
| O=C(NCc1n[nH]c(=S)n1-c1cccc(Cl)c1)c1ccc(S(=O)(=O)N2CCCCC2)cc1 | inactive: 4.74% |
| Cc1cccn2c(=O)c3cc(C(=O)NCCN4CCOCC4)c(=N)n(CCN4CCOCC4)c3nc12 | inactive: 6.75% |
| Cn1c(N)c(C(=O)CSc2nnc3n2CCCCC3)c(=O)n(C)c1=O | inactive: 18.9% |
| COc1ccc(NC(=O)CS(=O)CC(=O)N2CCN(C3CCCC3)CC2)cc1 (stereo not given) | inactive: -14.8% |
| O=[N+]([O-])c1ccc(N2CCN(CCO)CC2)cc1NCc1ccco1 | inactive: 14.3% |
| COc1cc(Cn2c3ccc(NC(=O)CC(C)c4ccccc4)cc3c(=O)n2C)ccc1F (stereo not given) | inactive: -6.95% |
| CCn1c(O)c(/C=N/N=C2CCCCC2)c2cc(C3=NNC(=O)CC3)ccc21 | inactive: 4.62% |
| Cc1occc1C(=O)N=Nc1c(O)n(C)c2ccccc12 | inactive: 8.47% |
| COc1cccc(-c2nc(NCc3cccnc3)c3ccccc3n2)c1O | inactive: 10.5% |
| O=C(Nc1ccc(N2CCOCC2)cc1)c1ccc(COc2ccccc2)cc1 | inactive: 5.54% |
| O=C(NNC(=O)c1cc(S(=O)(=O)N2CCOCC2)c(Cl)cc1Cl)c1ccccc1F | inactive: -1.39% |
| CCOc1ccccc1N1CCN(C(=O)c2ccc3nc(N)sc3c2)CC1 | inactive: -0.049% |
| CN=C1S/C(=C\c2ccc(SC)cc2)C(=O)N1C | inactive: -0.807% |
| COc1ccccc1CNc1nc(NCc2ccc(C)cc2C)c2sccc2n1 | inactive: -7.04% |
| COc1cc(OC)cc(OC2(C)CCN(Cc3ccc(OC(C)C)cc3)C2)c1 (stereo not given) | inactive: -6.88% |
| Cc1ccc(NC(=O)N2CCc3cc(S(=O)(=O)N4CCC(C)CC4)ccc32)cc1 | inactive: -3.78% |
| CCOc1ccccc1NC(=O)C1CCCN(S(C)(=O)=O)C1 (stereo not given) | inactive: -0.117% |
| CC1CCN(C(=O)Cn2c(=O)n(CCCCCC(=O)NCc3ccccc3Cl)c(=O)c3sccc32)CC1 | inactive: -2.92% |
| COCCn1c(SCC(=O)Nc2ccc3[nH]c(=O)[nH]c3c2)nc2ccccc21 | inactive: -0.437% |
| Cc1cc([N+](=O)[O-])ccc1NC(=O)CSc1nncn1-c1ccccn1 | inactive: 1.67% |
| CCCC(=O)Nc1ccc(-c2csc(N/N=C\c3ccncc3)n2)cc1 | inactive: 18.5% |
| CN1CCN(c2ccc(CNC(=O)C3Cc4c(-c5ccc6c(c5)OCO6)ccnc4O3)cc2)CC1 (stereo not given) | inactive: 0.758% |
| O=C(Nc1cccc(NC(=O)c2ccc([N+](=O)[O-])o2)c1)c1ccco1 | inactive: 12.9% |
| Cc1cc(Cl)ccc1NC(=O)Cn1nc(C)c2c(C)n(-c3ccccc3)nc2c1=O | inactive: 7.79% |

| SMILES | growth rescue (activation) |
| --- | --- |
| Cc1nc2sc3c(c2c(=N)n1N)CCCC3 | inactive: 4.09% |
| CC(C)[C@H](NC(=O)NC1CCN(Cc2ccccc2)CC1)C(=O)O | inactive: 0.36% |
| CN(C)CCNc1ncnc2c1ncn2[C@H]1CN(Cc2ccncc2)C[C@@H](CO)O1 | inactive: -0.256% |
| Cc1cc(=O)oc2c(CN3CCCCC3)c(O)c(Cl)cc12 | inactive: -2.82% |
| O=C(c1ccc(S(=O)(=O)N2CCOCC2)cc1)N1CCOCC1 | inactive: -17.3% |
| CNC(=O)c1cc(S(=O)(=O)Nc2ccc(C)cc2C)ccc1C | inactive: -3.42% |
| Cc1cc(C)c(C(=O)COC(=O)Cn2nc(-c3ccccc3)oc2=O)cc1C | inactive: 26.8% |
| Cn1c(=O)c2c(nc(CN3CCN(C(=O)c4ccco4)CC3)n2CC(=O)C(C)(C)C)n(C)c1=O | inactive: 3.46% |
| N#C/C(=C(/O)c1ccc(C(=O)c2ccccc2)cc1)c1nc2ccccc2[nH]1 | inactive: -3.57% |
| O=C(OCn1nnc2ccccc2c1=O)c1ccc2ccccc2n1 | inactive: 3.95% |
| Cc1cc(Cl)ccc1NC(=S)NCC(C)C | inactive: 6.22% |
| CC(C)CNC(=O)C1(C)CCCN1C(=O)C(C)(C)Oc1ccc(Cl)cc1 (stereo not given) | inactive: 29.4% |
| COCCNC(=O)C(OC(=O)C1=Cc2ccccc2OC1)C(C)C (stereo not given) | inactive: -2.46% |
| CC(C)CC(NC(N)=O)C(=O)Nc1ccc(Oc2ccccc2)cc1 (stereo not given) | inactive: 5.2% |
| Cc1cc(NC(=O)CSc2nnc(-c3ccccc3F)n2N)no1 | inactive: 30.9% |
| OC[C@@H]1CN(Cc2cccc(C(F)(F)F)c2)C[C@H](n2cnc3c(NCc4ccc(F)cc4)ncnc32)O1 | inactive: 12.4% |
| Cc1ccc(/C=C2\SC(=S)N(CCC(=O)NNS(=O)(=O)c3ccc(C)cc3)C2=O)cc1 | inactive: 12.5% |
| CCOC(=O)/C=C/C(=O)Nc1cccc([N+](=O)[O-])c1 | inactive: -93.5% |
| Cc1ccc(C(=O)NNc2ncnc3ccccc23)cc1 | inactive: -18.8% |
| O=C(N/N=C/c1ccc(O)c(O)c1O)/C(=C/c1ccc([N+](=O)[O-])cc1)NC(=O)c1ccccc1 | inactive: -75.5% |
| CCN(CC)S(=O)(=O)c1cccc(C(=O)N2CC(O)CC2C(=O)O)c1 (stereo not given) | inactive: -9.39% |
| O=S(=O)(CCc1ccncc1)c1ccc(Cl)cc1 | inactive: 4.62% |
| CCn1nc(C)c(CN2CCN(Cc3cccc(OC)c3)C(CCO)C2)c1C (stereo not given) | inactive: 4.65% |
| CCN(CC(=O)Nc1sc2c(c1C#N)CCCC2)CC(=O)NC1CCS(=O)(=O)C1 (stereo not given) | inactive: 0.652% |
